Reference: publication PMC4336329 (PLoS ONE, 2015)
Hit rate of the full screen: of about 310,000 compounds, about 2,200 (0.71%) showed an effect of 50% or more. The effect is printed as a negative number. Some of the results follow.

These molecules were tested against human ether-à-go-go-related gene (hERG) potassium channel (human, UniProt Q12809) (assay: primary screen, population patch clamp on CHO cells stably expressing hERG).
Chain of human ether-à-go-go-related gene (hERG) potassium channel (Q12809 whole entry, looked up): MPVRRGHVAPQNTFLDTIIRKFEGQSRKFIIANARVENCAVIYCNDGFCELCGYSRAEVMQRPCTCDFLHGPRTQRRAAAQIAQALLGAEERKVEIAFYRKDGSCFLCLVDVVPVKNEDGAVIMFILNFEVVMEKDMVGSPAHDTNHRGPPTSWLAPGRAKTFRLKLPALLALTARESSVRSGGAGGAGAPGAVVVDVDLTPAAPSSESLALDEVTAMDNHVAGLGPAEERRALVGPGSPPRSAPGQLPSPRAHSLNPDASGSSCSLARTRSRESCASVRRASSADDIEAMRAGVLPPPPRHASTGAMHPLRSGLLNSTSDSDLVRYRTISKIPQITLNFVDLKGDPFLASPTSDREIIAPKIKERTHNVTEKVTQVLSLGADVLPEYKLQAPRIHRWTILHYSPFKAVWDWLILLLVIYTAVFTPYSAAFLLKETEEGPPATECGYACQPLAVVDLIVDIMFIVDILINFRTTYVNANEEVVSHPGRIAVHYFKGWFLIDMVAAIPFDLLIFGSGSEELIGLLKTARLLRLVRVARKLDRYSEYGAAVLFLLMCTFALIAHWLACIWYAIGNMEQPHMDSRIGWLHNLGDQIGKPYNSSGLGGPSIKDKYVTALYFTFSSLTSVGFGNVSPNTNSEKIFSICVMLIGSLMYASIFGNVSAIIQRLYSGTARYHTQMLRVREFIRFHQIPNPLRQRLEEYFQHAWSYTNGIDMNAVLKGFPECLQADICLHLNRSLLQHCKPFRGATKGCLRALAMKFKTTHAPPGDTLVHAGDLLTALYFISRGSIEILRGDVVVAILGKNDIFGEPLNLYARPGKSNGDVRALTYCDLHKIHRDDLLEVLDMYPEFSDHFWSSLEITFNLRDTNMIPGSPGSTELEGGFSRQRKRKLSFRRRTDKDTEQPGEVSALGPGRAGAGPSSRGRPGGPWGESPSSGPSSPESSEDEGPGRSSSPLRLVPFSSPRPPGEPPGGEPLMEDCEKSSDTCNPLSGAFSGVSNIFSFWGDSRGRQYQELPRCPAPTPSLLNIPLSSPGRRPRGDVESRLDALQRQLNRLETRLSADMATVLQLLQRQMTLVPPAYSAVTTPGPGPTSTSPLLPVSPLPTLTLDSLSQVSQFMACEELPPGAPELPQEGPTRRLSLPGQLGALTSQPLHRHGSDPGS

| Structure (SMILES) | hERG current change (%, negative = inhibition) at 1uM [%] |
| --- | --- |
| O=C(CSc1nc(-c2cccs2)cc(C(F)(F)F)n1)NCCCN1CCOCC1 | 0.986 |
| CC1Cc2ccccc2N1C(=O)COC(=O)c1ccc(Cl)nc1 (stereo not drawn) | 8.17 |
| Cc1nc(S/C(C(=O)O)=C2/C(=O)Nc3ccccc32)n[nH]1 | -1.95 |
| CCOc1ccc(-c2noc(CCCC(=O)NC3CCCCC3)n2)cc1OC | -7.49 |
| O=C(Nc1ccc(O)cc1)c1ccc2c(c1)C(=O)N(Cc1cccnc1)C2=O | 15.7 |
| CCC(CC)NC(=O)c1nn(Cc2ccccc2)c(=O)c2ccccc12 | 13.1 |
| O=C(c1cc2ccccc2oc1=O)N1CCN(c2ccccn2)CC1 | 9.08 |
| COCCCNC(=S)Nc1cccc(SC)c1 | 14.3 |
| COc1ccc(CC2(CCc3ccccn3)C(=O)NC(=O)N(c3ccccc3C)C2=O)cc1OC (stereo not drawn) | 9.49 |
| COc1ccc(-c2c(C)n([O-])c3c([n+]2=O)CCCCC3)cc1 | 2.36 |
| Cc1c(Cl)cccc1NC(=O)CNc1cccc(C(F)(F)F)c1 | 2.51 |
| COc1ccc(CCNC(=O)c2nn(C)c3c2CS(=O)(=O)c2ccccc2-3)c(OC)c1 | 10.2 |
| Cc1nn(-c2ccc(Cl)cc2Cl)c(=O)c2ccccc12 | 6.47 |
| CCOC(=O)N1CCN(C(=O)CCN2C(=O)/C(=C\c3cccc(OC)c3)SC2=S)CC1 | 7.62 |
| Cc1ccc(C(=O)CSc2nnc(-c3ccco3)o2)o1 | 5.44 |
| C/C(=C(\C#N)C(=O)NCCN1CCOCC1)N(C)C | -8.79 |
| COc1ccc2c(c1)c(C(C)=O)c(C)n2CCc1ccc(OC)c(OC)c1 | 5.08 |
| COc1ccc(CCNC(=O)c2cc(=O)c3cc(C)ccc3o2)cc1OC | 8.92 |
| COC(=O)Cc1ccc(OC(=O)c2cccc(S(=O)(=O)N3CCN(C)CC3)c2)cc1 | 4.82 |
| O=C(O)c1cccc(S(=O)(=O)Nc2cccc(S(=O)(=O)N3CCCC3)c2)c1 | 11.2 |
| CN(C(=O)c1ccc2c(c1)OCO2)C1(C)CCS(=O)(=O)C1 (stereo not drawn) | 7.11 |

| Structure (SMILES) | hERG current change (%, negative = inhibition) at 1uM [%] |
| --- | --- |
| Cc1cccc(Oc2sc(C(=O)c3ccccc3)c(N)c2C#N)c1C | 12.5 |
| COc1ccc(NC(=S)NC(NC(=O)c2cccc3ccccc23)C(Cl)(Cl)Cl)c([N+](=O)[O-])c1 (stereo not drawn) | 5.26 |
| Nc1ccc(C(=O)OCC(=O)N2c3ccccc3Sc3ccccc32)cc1[N+](=O)[O-] | 17.4 |
| O=C(Nc1ccc2cn[nH]c2c1)c1ccc(Cl)c(S(=O)(=O)N2CCOCC2)c1 | 16 |
| Cc1ccc(-n2nc(C)c(=O)c(-c3ccccc3)c2NC(=O)c2cccs2)cc1 | 10 |
| O=C(CCSCCc1ccccn1)Nc1nccs1 | 16.9 |
| CCOc1ccc2ncc(S(=O)(=O)c3ccccc3)c(N3CCN(c4ccccc4)CC3)c2c1 | 0.238 |
| CCCCn1c(N)c(N(CC(C)C)C(=O)c2ccc3c(c2)NC(=O)C(C)S3)c(=O)[nH]c1=O (stereo not drawn) | -0.25 |
| O=C(c1cc(-n2cnnc2)ccc1Cl)N1CCN(c2nc(-c3ccccc3)cs2)CC1 | -3.41 |
| CN1CCN(C(=O)c2cc(Cl)ccc2Cl)CC1 | 10.1 |
| CCNc1c(NS(=O)(=O)c2ccc(F)c(Cl)c2)c(=O)oc2ccccc12 | -8.66 |
| COc1cc(CSc2nnnn2-c2ccc(C)cc2)cc(OC)c1OC | 8.75 |
| CCCn1nc(C(=O)OCc2nc(N)nc(Nc3ccccc3C)n2)c2ccccc2c1=O | -0.705 |
| COc1cccc(NC(=S)N(CCCN2CCOCC2)C(C)c2cc3cccc(OC)c3o2)c1 (stereo not drawn) | 6.01 |
| C/C(=N\n1c(C)nc2ccccc2c1=O)c1ccc(C)o1 | 12.6 |
| CC1(C)c2[nH]c3ccccc3c2C[C@H]2C(=O)N(Cc3cccc(F)c3)C(=O)N21 | 14.3 |
| O=C(c1cc(C(=O)N2CCOCC2)c2nc3ccccc3n2c1)c1ccccc1O | 1.89 |
| Cc1nn(C)cc1CNC(=O)C1CCC(=O)N(Cc2cccc(C(F)(F)F)c2)C1 (stereo not drawn) | 19.9 |
| CC(=O)N1c2ccc(S(=O)(=O)NCC3CCC(C(=O)NCc4ccccc4)CC3)cc2CC1C (stereo not drawn) | 17 |
| O=c1c2ccccc2nc(SCCN2CCOCC2)n1CCc1ccccc1 | 8.69 |
| O=S(=O)(NCc1cccnc1)c1ccc(Cl)s1 | 5.89 |

| Structure (SMILES) | hERG current change (%, negative = inhibition) at 1uM [%] |
| --- | --- |
| N#Cc1ccsc1NC(=O)c1cccc([N+](=O)[O-])c1 | 5.73 |
| O=C(NCCOc1ccccc1)c1cc(S(=O)(=O)N2CCOCC2)ccc1F | 14.7 |
| N/C(=N\OC(=O)CC1CCCCC1)c1cccc([N+](=O)[O-])c1 | 13.7 |
| O=C(Nc1nc(-c2cc(Cl)sc2Cl)cs1)c1ccc(Br)s1 | 3.38 |
| COc1cc2c(cc1OC)CN(C(=S)Nc1ccc(C)cc1C)CC2 | 4.85 |
| COC(=O)c1ccccc1S(=O)(=O)N1CCn2cccc2C1C (stereo not drawn) | 0.029 |
| Cc1ccc(NC(=S)NC(=O)CC2CC(C)(C)OC2=O)cc1 (stereo not drawn) | 8.78 |
| COc1ccc(C)cc1S(=O)(=O)N1CCCC(C(=O)N2CCN(c3ccccc3)CC2)C1 (stereo not drawn) | 3.96 |
| CCc1nn(CCCC(=O)Nc2ccc(C)cc2C)c(=O)c2cc3occc3n12 | 7.33 |
| O=C(NCCOc1cccc(Oc2ccccc2)c1)c1cc(-n2cnnc2)ccc1Cl | 1.46 |
| CC(C)NC(=O)/C(C#N)=C/c1cccc(NC(=O)c2ccccc2Cl)c1 | 4.65 |
| CC1CCC(NC(=O)c2cc3c(s2)CCCC3)CC1 (stereo not drawn) | 16.4 |
| O=C(C1CCN(c2ncnc3c2sc2cccc(F)c23)CC1)N1CCCC1 | 6.94 |
| CCn1c(SCC(=O)Nc2oc(-c3ccccc3)c(-c3ccccc3)c2C#N)nnc1-c1cc(OC)cc(OC)c1 | -4.42 |
| O=C(c1cnn(C(=O)COc2ccccc2F)c1)c1cc(F)ccc1O | 7.78 |
| COc1cc(CCC(=O)OCC(=O)NC2CCCC(C)C2C)cc(OC)c1OC (stereo not drawn) | 8.81 |
| COC(=O)Cc1c(C)nc2nc(NCc3ccc(Cl)cc3)[nH]n2c1=O | 8.13 |
| O=C1NC(=O)N(c2ccc(F)cc2)C(=O)/C1=C/c1ccsc1 | 7.5 |
| O=[N+]([O-])c1ccc(OCC(O)CN(CCO)CCO)cc1 (stereo not drawn) | -16.9 |
| Cc1ccc(Cn2nnc3c(=O)[nH]c(C4CCN(S(=O)(=O)c5ccccc5F)CC4)nc32)cc1 | 3.52 |
| COc1ccccc1CNC(=O)COC(=O)c1ccc(C)c(S(=O)(=O)N2CCCCC2)c1 | -8.92 |

| Structure (SMILES) | hERG current change (%, negative = inhibition) at 1uM [%] |
| --- | --- |
| Cc1ccc2nc(N3CCOCC3)c(C=O)cc2c1 | 3.96 |
| CCCCSCCCNC(=O)C1CCC(CNS(=O)(=O)c2ccccc2)CC1 (stereo not drawn) | 7.88 |
| Br.O=[N+]([O-])c1ccc(CSC2=NCCN2)cc1 | 8.87 |
| CC(=O)Nc1ccc(N2CCN(C(C)=O)CC2)cc1 | 17.3 |
| CC[C@H](C)[C@@H](NC(=O)O[C@@H]1C(=O)c2cc(OC)ccc2O[C@H]1c1ccc(OC)c(Br)c1)C(=O)OC | 0.727 |
| COc1ccc(C(C)=O)c2c1OCCO2 | 8.77 |
| COc1ccc(CCNC(=O)c2c(C)nc3ccccn23)cc1 | 4.94 |
| CCP(=O)(c1cccc([N+](=O)[O-])c1)c1cccc([N+](=O)[O-])c1 | 10.4 |
| CCOC(=O)C1=C(C)N=c2s/c(=C/c3cccc([N+](=O)[O-])c3O)c(=O)n2C1c1ccccc1 (stereo not drawn) | 1.62 |
| Cc1cccc(-n2c(N)c(C(=O)NCCN3CCOCC3)c3nc4ccccc4nc32)c1 | -20.9 |
| CCCCc1c(C)nc2ccccc2c1SCCC#N | -4.65 |
| CCS(=O)CC(=O)Nc1c(-c2ccccc2)oc2ccccc2c1=O (stereo not drawn) | 11.6 |
| O=C(NCc1ccc2c(c1)OCO2)Nc1cccc(Cl)c1 | 8.71 |
| O=C1CN(c2nc(-c3cccs3)nc3sc4c(c23)CCCC4)CCN1 | 7.17 |
| COc1ccccc1S(=O)(=O)Nc1cccc(-c2nnc3n2CCCCC3)c1 | 14.8 |
| Cc1cccc(C)c1NC(=O)CCc1nnc2ccc(N3CCCC3)nn12 | 10.1 |
| O=C(Cn1ncc(N2CCCC2)c(Cl)c1=O)c1ccc(Cl)cc1 | 5.94 |
| O=C(CSc1nnc(COc2ccccc2)n1-c1ccccc1)c1cccs1 | 11.5 |
| Cc1cc(C)cc(N2C(=O)NC(=O)/C(=C\c3cccn3-c3ccc(Cl)cc3)C2=O)c1 | 12 |
| CCc1ccc(OCCNC(=O)c2ccc(S(=O)(=O)N(C)C)cc2)cc1 | -10.4 |
| Cc1ccc(S(=O)(=O)N2CCOCC2)cc1C(=O)OCC(=O)Nc1ccc2[nH]c(=O)[nH]c2c1 | 2.59 |
